Results from the supplement of paper PMC8948288.
The sequences are guide strands of siRNAs; only the seed at positions 2 to 7 varies.

Experiments:
GL261 = experiment: cell viability relative to siNT1 (ATP content); H4 human neuroglioma and GL261 mouse glioma; higher = less toxic; details: siRNA concentration 25 nM; 96 h; mouse
H4 = experiment: as above; details: siRNA concentration 10 nM; 96 h; human
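Note: cells reverse transfected with siRNA duplexes via lipid reagent, ATP read by luminescence, triplicate wells, values scaled to mean viability with non-targeting control siNT1.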

Row | Sequence | cell viability (GL261) [%] | cell viability (H4) [%]
1 | UUAAUUGACAUGUAAACCA | 74.1 | 83.2
2 | UUAAUUUACAUGUAAACCA | 44 | 113
3 | UUACAAAACAUGUAAACCA | 79.2 | 81
4 | UUACAACACAUGUAAACCA | 68.9 | 86.1
5 | UUACAAGACAUGUAAACCA | 74.7 | 74.4
6 | UUACAAUACAUGUAAACCA | 47.2 | 89.1
7 | UUACACAACAUGUAAACCA | 54.1 | 83.9
8 | UUACACCACAUGUAAACCA | 30.6 | 16.3
9 | UUACACGACAUGUAAACCA | 48.6 | 104
10 | UUACACUACAUGUAAACCA | 49.9 | 65.8
11 | UUACAGAACAUGUAAACCA | 45.7 | 92.6
12 | UUACAGCACAUGUAAACCA | 36.6 | 57.8
13 | UUACAGGACAUGUAAACCA | 45.3 | 54.8
14 | UUACAGUACAUGUAAACCA | 43.1 | 72.9
15 | UUACAUAACAUGUAAACCA | 63 | 82.2
16 | UUACAUCACAUGUAAACCA | 36.9 | 64.6
17 | UUACAUGACAUGUAAACCA | 54 | 74.9
18 | UUACAUUACAUGUAAACCA | 71.5 | 99.5
19 | UUACCAAACAUGUAAACCA | 48.4 | 73.6
20 | UUACCACACAUGUAAACCA | 78.1 | 62.1
21 | UUACCAGACAUGUAAACCA | 43.9 | 55.1
22 | UUACCAUACAUGUAAACCA | 55.2 | 42.9
23 | UUACCCAACAUGUAAACCA | 44.9 | 55.3
24 | UUACCCCACAUGUAAACCA | 37.8 | 18.1

Row | Sequence | cell viability (GL261) [%] | cell viability (H4) [%]
25 | UUACCCGACAUGUAAACCA | 66.5 | 68.3
26 | UUACCCUACAUGUAAACCA | 33.5 | 38.4
27 | UUACCGAACAUGUAAACCA | 74.7 | 78.7
28 | UUACCGCACAUGUAAACCA | 40.2 | 58.9
29 | UUACCGGACAUGUAAACCA | 54.1 | 79.4
30 | UUACCGUACAUGUAAACCA | 58.1 | 95.3
31 | UUACCUAACAUGUAAACCA | 81.9 | 76
32 | UUACCUCACAUGUAAACCA | 30 | 47.4
33 | UUACCUGACAUGUAAACCA | 86.5 | 62.5
34 | UUACCUUACAUGUAAACCA | 58.6 | 60.8
35 | UUACGAAACAUGUAAACCA | 68.5 | 96.9
36 | UUACGACACAUGUAAACCA | 38.4 | 57.5
37 | UUACGAGACAUGUAAACCA | 57.7 | 75.6
38 | UUACGAUACAUGUAAACCA | 64 | 74.5
39 | UUACGCAACAUGUAAACCA | 63.8 | 90.2
40 | UUACGCCACAUGUAAACCA | 42.4 | 67.5
41 | UUACGCGACAUGUAAACCA | 57.4 | 95.1
42 | UUACGCUACAUGUAAACCA | 65.9 | 95.4
43 | UUACGGAACAUGUAAACCA | 53.9 | 87.4
44 | UUACGGCACAUGUAAACCA | 41.5 | 50.1
45 | UUACGGGACAUGUAAACCA | 75.1 | 43.6
46 | UUACGGUACAUGUAAACCA | 38.1 | 61.8
47 | UUACGUAACAUGUAAACCA | 63.6 | 84.9
48 | UUACGUCACAUGUAAACCA | 77.7 | 65.2

Row | Sequence | cell viability (GL261) [%] | cell viability (H4) [%]
49 | UUACGUGACAUGUAAACCA | 71.6 | 98.9
50 | UUACGUUACAUGUAAACCA | 56.4 | 104
51 | UUACUAAACAUGUAAACCA | 60.8 | 85.5
52 | UUACUACACAUGUAAACCA | 59.1 | 57.3
53 | UUACUAGACAUGUAAACCA | 69.3 | 74.6
54 | UUACUAUACAUGUAAACCA | 49 | 80.4
55 | UUACUCAACAUGUAAACCA | 65.8 | 69.9
56 | UUACUCCACAUGUAAACCA | 39.2 | 12.9
57 | UUACUCGACAUGUAAACCA | 81.8 | 71.9
58 | UUACUCUACAUGUAAACCA | 44.7 | 54
59 | UUACUGAACAUGUAAACCA | 67.5 | 95.7
60 | UUACUGCACAUGUAAACCA | 31.9 | 58.6
61 | UUACUGGACAUGUAAACCA | 41.2 | 55
62 | UUACUGUACAUGUAAACCA | 45.8 | 60.5
63 | UUACUUAACAUGUAAACCA | 72.3 | 70.3
64 | UUACUUCACAUGUAAACCA | 51.4 | 46.2
65 | UUACUUGACAUGUAAACCA | 59.5 | 80.9
66 | UUACUUUACAUGUAAACCA | 75.7 | 51
67 | UUAGAAAACAUGUAAACCA | 90.1 | 105
68 | UUAGAACACAUGUAAACCA | 64.1 | 65.2
69 | UUAGAAGACAUGUAAACCA | 82.5 | 93.2
70 | UUAGAAUACAUGUAAACCA | 56.5 | 96.1
71 | UUAGACAACAUGUAAACCA | 74.3 | 88.9
72 | UUAGACCACAUGUAAACCA | 37.9 | 75.5

Row | Sequence | cell viability (GL261) [%] | cell viability (H4) [%]
73 | UUAGACGACAUGUAAACCA | 69.9 | 73.1
74 | UUAGACUACAUGUAAACCA | 85.7 | 78.1
75 | UUAGAGAACAUGUAAACCA | 40.5 | 85.9
76 | UUAGAGCACAUGUAAACCA | 51.9 | 45.8
77 | UUAGAGGACAUGUAAACCA | 25.5 | 62.5
78 | UUAGAGUACAUGUAAACCA | 31.2 | 59.5
79 | UUAGAUAACAUGUAAACCA | 52.6 | 112
80 | UUAGAUCACAUGUAAACCA | 33 | 90.7
81 | UUAGAUGACAUGUAAACCA | 44 | 87.1
82 | UUAGAUUACAUGUAAACCA | 60.1 | 78.8
83 | UUAGCAAACAUGUAAACCA | 56.2 | 88.6
84 | UUAGCACACAUGUAAACCA | 30.7 | 66.2
85 | UUAGCAGACAUGUAAACCA | 44.4 | 79.9
86 | UUAGCAUACAUGUAAACCA | 42.3 | 81.2
87 | UUAGCCAACAUGUAAACCA | 45.6 | 71.6
88 | UUAGCCCACAUGUAAACCA | 28.5 | 35.5
89 | UUAGCCGACAUGUAAACCA | 59.4 | 71.4
90 | UUAGCCUACAUGUAAACCA | 33.3 | 22.5
91 | UUAGCGAACAUGUAAACCA | 82.6 | 85.2
92 | UUAGCGCACAUGUAAACCA | 65.7 | 85.4
93 | UUAGCGGACAUGUAAACCA | 65 | 40.5
94 | UUAGCGUACAUGUAAACCA | 67.2 | 77.8
95 | UUAGCUAACAUGUAAACCA | 75.7 | 93.2
96 | UUAGCUCACAUGUAAACCA | 40.6 | 33.9

Row | Sequence | cell viability (GL261) [%] | cell viability (H4) [%]
97 | UUAGCUGACAUGUAAACCA | 80.9 | 83.1
98 | UUAGCUUACAUGUAAACCA | 53.9 | 65.4
99 | UUAGGAAACAUGUAAACCA | 62.2 | 78.4
100 | UUAGGACACAUGUAAACCA | 49.9 | 52.9
101 | UUAGGAGACAUGUAAACCA | 63.9 | 77.2
102 | UUAGGAUACAUGUAAACCA | 59.9 | 55.3
103 | UUAGGCAACAUGUAAACCA | 46.7 | 84.6
104 | UUAGGCCACAUGUAAACCA | 14.2 | 28.5
105 | UUAGGCGACAUGUAAACCA | 56.7 | 69.9
106 | UUAGGCUACAUGUAAACCA | 34.2 | 47.9
107 | UUAGGGAACAUGUAAACCA | 47.2 | 64.4
108 | UUAGGGCACAUGUAAACCA | 43.3 | 26.9
109 | UUAGGGGACAUGUAAACCA | 46.3 | 43.6
110 | UUAGGGUACAUGUAAACCA | 27.3 | 34.4
111 | UUAGGUAACAUGUAAACCA | 43.7 | 84.8
112 | UUAGGUCACAUGUAAACCA | 49.1 | 10.4
113 | UUAGGUGACAUGUAAACCA | 59.1 | 77.9
114 | UUAGGUUACAUGUAAACCA | 39.5 | 84.7
115 | UUAGUAAACAUGUAAACCA | 45.8 | 87.4
116 | UUAGUACACAUGUAAACCA | 33.5 | 74
117 | UUAGUAGACAUGUAAACCA | 49.7 | 91.6
118 | UUAGUAUACAUGUAAACCA | 40.8 | 75.9
